{"sequences": {"note": "Amino acid sequences for entries named in this document (tags omitted).", "UniProt O75494": "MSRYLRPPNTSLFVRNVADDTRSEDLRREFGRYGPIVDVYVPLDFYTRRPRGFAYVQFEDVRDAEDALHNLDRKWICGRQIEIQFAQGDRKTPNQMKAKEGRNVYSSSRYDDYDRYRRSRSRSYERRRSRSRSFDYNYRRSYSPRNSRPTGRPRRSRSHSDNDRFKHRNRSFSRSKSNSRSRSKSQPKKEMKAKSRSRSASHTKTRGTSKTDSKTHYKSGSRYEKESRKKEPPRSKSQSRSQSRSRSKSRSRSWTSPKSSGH", "UniProt Q15717": "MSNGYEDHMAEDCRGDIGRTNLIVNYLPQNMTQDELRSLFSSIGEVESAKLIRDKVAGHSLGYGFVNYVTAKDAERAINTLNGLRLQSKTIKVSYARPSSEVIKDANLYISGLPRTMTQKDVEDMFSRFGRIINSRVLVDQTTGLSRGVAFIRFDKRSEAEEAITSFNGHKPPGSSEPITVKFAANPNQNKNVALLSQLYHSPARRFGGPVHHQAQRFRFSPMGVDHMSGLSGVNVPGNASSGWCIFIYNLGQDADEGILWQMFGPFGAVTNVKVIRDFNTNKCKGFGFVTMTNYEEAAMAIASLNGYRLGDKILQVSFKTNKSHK", "UniProt P61326": "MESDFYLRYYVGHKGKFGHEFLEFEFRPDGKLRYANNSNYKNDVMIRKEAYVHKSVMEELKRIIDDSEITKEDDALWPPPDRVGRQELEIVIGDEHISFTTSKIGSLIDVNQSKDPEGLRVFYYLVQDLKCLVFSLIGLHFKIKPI", "UniProt Q96A72": "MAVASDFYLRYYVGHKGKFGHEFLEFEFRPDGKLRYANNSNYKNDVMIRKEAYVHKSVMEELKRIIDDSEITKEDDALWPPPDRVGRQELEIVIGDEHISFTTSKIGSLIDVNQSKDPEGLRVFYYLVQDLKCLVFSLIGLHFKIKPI", "UniProt P11940": "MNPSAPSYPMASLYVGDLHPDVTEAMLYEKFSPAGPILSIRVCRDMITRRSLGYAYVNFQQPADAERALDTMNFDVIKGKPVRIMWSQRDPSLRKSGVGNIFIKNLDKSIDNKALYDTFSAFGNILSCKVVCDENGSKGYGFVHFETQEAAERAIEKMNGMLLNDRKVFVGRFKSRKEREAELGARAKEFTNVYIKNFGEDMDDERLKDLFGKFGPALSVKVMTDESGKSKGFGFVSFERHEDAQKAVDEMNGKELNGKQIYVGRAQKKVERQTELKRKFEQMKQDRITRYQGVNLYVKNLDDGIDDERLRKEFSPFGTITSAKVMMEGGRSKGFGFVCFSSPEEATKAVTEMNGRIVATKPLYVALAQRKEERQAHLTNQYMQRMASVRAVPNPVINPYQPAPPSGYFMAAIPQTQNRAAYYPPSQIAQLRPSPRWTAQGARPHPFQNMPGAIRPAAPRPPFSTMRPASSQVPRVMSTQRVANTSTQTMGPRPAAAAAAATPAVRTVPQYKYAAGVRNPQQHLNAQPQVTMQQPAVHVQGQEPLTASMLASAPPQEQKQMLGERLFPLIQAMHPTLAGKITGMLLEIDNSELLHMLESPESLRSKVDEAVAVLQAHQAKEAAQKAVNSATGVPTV", "UniProt Q9BY49": "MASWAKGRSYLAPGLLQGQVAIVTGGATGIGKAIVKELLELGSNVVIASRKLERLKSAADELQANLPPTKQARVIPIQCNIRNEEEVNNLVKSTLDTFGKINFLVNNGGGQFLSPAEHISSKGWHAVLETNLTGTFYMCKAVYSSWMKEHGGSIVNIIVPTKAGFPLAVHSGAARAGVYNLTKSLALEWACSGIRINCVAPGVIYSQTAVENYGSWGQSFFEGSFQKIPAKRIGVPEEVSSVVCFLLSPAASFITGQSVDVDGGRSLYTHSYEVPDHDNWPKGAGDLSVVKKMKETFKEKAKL"}, "source": "paper PMC8927159", "molecular_target": "Serine/arginine-rich splicing factor 10 (SRSF10) (human (endogenous in Hep3B and HCCLM3)) (UniProt O75494)", "assay": "co-IP; independent endogenous SRSF10 immunoprecipitation from Hep3B and HCCLM3 cells on Protein G Dynabeads; IP buffer 20 mM Tris pH 8, 10% glycerol, 150 mM NaCl, 0.1% NP-40, 0.1 mM EDTA; western blot", "note": "Results are given in words; binding and its absence hold for the method and conditions named. In cells and extracts the contact can be indirect. Some binding calls cover weakened binding; strength is not graded here.", "data": [{"substance": "ELAVL1 (from UniProt Q15717 1-326)", "values": [{"measurement": "binding", "value": "binds"}]}, {"substance": "MAGOH (from UniProt P61326 1-146)", "values": [{"measurement": "binding", "value": "binds"}]}, {"substance": "MAGOHB (from UniProt Q96A72 1-148)", "values": [{"measurement": "binding", "value": "binds"}]}, {"substance": "PABPC1 (from UniProt P11940 1-636)", "values": [{"measurement": "binding", "value": "binds"}]}, {"substance": "PECR (from UniProt Q9BY49 1-303)", "values": [{"measurement": "binding", "value": "no binding"}]}]}
